Measured values taken from PubChem BioAssay AID686979 (National Center for Advancing Translational Sciences (NCATS), 2013).
Out of some 420,000 compounds screened, about 50,000 (12%) were called active. Inconclusive results, whose numbers are uncertain, are shown with a selection of clear calls. Calls come from the whole dose curve; as a rule, active = well fitted inhibition curve with a large enough effect; inconclusive = small, poorly fitted or top-dose-only effect; inactive = flat fitted curve, though single readings scatter. No potency is given beside an inconclusive call; the fits are too rough.

Experiment: qHTS for Inhibitors of human tyrosyl-DNA phosphodiesterase 1 (TDP1): qHTS in cells in presence of CPT; note: nearly all actives have a fitted effect of over 55% in size
Details: chicken DT40 Tdp1-/-;hTDP1 cells + 20 nM CPT, ATP luminescence, 48 h; activity change, negative = growth inhibition: at 46.2 µM (top of the series) unless noted
In short: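 Chicken DT40 Tdp1-/- cells stably complemented with human TDP1 were seeded at 400 cells/well in medium containing 20 nM camptothecin, exposed to pin-transferred compounds, and grown at 37 °C for at least 48 hr. Viability was read as ATP luminescence.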
% is set by controls: 0 for no effect and ±100 for the full control effect; potency is the fitted concentration of half-maximal effect; tags give direction and shape of the fitted curve.

With `COc1ccc(OC)c(NC(=O)CSc2ccc(-c3sc(C)nc3C)nn2)c1` as the compound, how does the Potency read?
Its Potency is active: 14.6 µM.

With `Cc1cc(C)c(C(O)c2ncc(-c3cccc4ccccc34)[nH]2)c(C)c1` (stereo not given) as the compound, how does the Potency read?
The Potency was inconclusive [inhibitor, single point].

For `Cc1cccc(-c2nc(CCNC(=O)Cc3ccccc3)cs2)c1`, which Potency is on record?
Its Potency is inconclusive [inhibitor, single point].

With `CCCC(C)NC(=O)c1ccccc1SC` (stereo not given) as the compound, how does the “activity change, negative = growth inhibition” value read?
The value was inactive: 2.3%.

For `CCn1cc(/C=C(\NC(=O)c2ccc(OC)c(OC)c2)C(=O)N2CCN(C)CC2)c2ccccc21`, which Potency is on record?
The Potency was inconclusive [inhibitor, single point].

For `Cc1ccccc1Nc1nnc(SCC(=O)c2cc3ccccc3o2)s1`, which Potency is on record?
Its Potency is inconclusive [inhibitor, full curve, poor fit].

Which Potency does the source give for `N#Cc1c(N)[nH]c(C(=O)c2ccccc2)c1-c1ccccc1Br` here?
Its Potency is inconclusive [inhibitor, partial curve, poor fit].

For `Cc1ccc(NC(=O)CSc2ccc(-c3ccccn3)nn2)cc1`, which Potency is on record?
Its Potency is inconclusive [inhibitor, single point].

For `COc1ccc(CCNC(=O)c2ccc3c(c2)N(Cc2ccc(F)cc2)C(=O)CS3)cc1OC`, which Potency is on record?
The Potency was active: 14.6 µM.

Which Potency does the source give for `Cc1ccc(C)n1-c1nnc(N2CCC(C(=O)NCCCN3CC(C)CC(C)C3)CC2)s1` (stereo not given) here?
The Potency was inconclusive [inhibitor, single point].

For `Fc1cccc2sc(Nc3nc4cc5c(cc4s3)OCCO5)nc12`, which Potency is on record?
Its Potency is inconclusive [inhibitor, single point].

For `CCn1c(=O)cc(SCC(=O)NCc2ccc(OC)cc2OC)c2ccccc21`, which “activity change, negative = growth inhibition” value is on record?
The value was inactive: -26.8%.

For `C/C=C(\CS(=O)(=O)c1ccccc1)S(=O)(=O)c1ccccc1`, which Potency is on record?
The Potency was inconclusive [inhibitor, single point].

With `Cc1ccc(Cn2ccc(NC(=O)c3cc(C4CC4)on3)n2)cc1` as the compound, how does the “activity change, negative = growth inhibition” value read?
Its value is inactive: -13.7%.

For `Cc1ccc(SC2=C(C(=O)O)CCCC2)cc1`, which “activity change, negative = growth inhibition” value is on record?
The value was inactive: -10.1%.

Which Potency does the source give for `CC(O)Cc1nsc(NC(=O)c2ccc(Br)o2)n1` (stereo not given) here?
Its Potency is active: 4.11 µM.

Which Potency does the source give for `CC1CCN(S(=O)(=O)c2ccc3c(c2)C(Cl)(Cl)C(=O)N3)CC1` here?
The Potency was active: 10.3 µM.

Which Potency does the source give for `Cc1ncccc1C(=O)N1CCCC(C(=O)c2ccc3c4c(cccc24)CC3)C1` (stereo not given) here?
Its Potency is inconclusive [inhibitor, single point].

With `CCC(CO)Oc1cc(NCc2ccc(C)c(C)c2)c2ncn(C(C)C)c2c1` (stereo not given) as the compound, how does the Potency read?
The Potency was inconclusive [inhibitor, single point].

For `COc1ccc(CCN2C(=O)CC(N3CCN(S(=O)(=O)c4ccccc4)CC3)C2=O)cc1OC` (stereo not given), which “activity change, negative = growth inhibition” value is on record?
The value was inactive: 3.69%.
